Each structure is given as a SMILES string. Out of some 340,000 compounds screened, about 6,900 (2%) were called active. Rule as the data show it: active = inhibition above about 30%; inactive = below that, where a call was filed. The list shows a part of the results, in another mix than the full data. Where no call is shown, the source filed none.

This assay deals with D(2) dopamine receptor (Homo sapiens) (UniProt P14416). The experiment in a line: HTS Assay for Allosteric Antagonists of the Human D2 Dopamine Receptor: Primary Screen for Antagonists. Also: 0% is about no effect. As to conditions: HEK293 TREx D2 cells, calcium flux, dopamine EC80; at 10 µM; stronger effect = higher value. The procedure, abridged: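 Tetracycline-induced HEK293 TREx cells expressing D2 receptor forced-coupled to calcium signalling, loaded with no-wash calcium dye. Compounds added and calcium flux read 180 s, then dopamine added at EC80 and read a further 180 s.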
UniProt P14416, sequence (P14416 whole entry, looked up): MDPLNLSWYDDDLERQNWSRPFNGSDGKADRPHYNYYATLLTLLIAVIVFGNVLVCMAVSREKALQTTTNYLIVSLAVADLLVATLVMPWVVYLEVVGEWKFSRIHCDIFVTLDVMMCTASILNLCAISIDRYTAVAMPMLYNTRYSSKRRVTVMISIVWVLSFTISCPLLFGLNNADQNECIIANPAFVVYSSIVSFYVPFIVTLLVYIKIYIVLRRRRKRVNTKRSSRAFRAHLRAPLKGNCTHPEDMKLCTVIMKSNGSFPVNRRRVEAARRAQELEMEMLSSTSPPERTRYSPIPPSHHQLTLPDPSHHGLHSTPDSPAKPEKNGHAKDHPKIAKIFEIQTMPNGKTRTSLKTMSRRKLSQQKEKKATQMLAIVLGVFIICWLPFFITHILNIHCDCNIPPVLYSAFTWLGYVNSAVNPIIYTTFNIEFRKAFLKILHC
(In general: Calcium flux is commonly read through the fluorescence of an indicator in the cells.)
As a reminder, the inhibition is the change of the read-out against control, counted positive when it falls. Turning to `COc1ccc(C(CNC(=O)C(C)Oc2ccc(Br)cc2)N2CCCC2)cc1` (stereo not drawn), the inhibition was active: 40.8%. For the molecule `CCN1c2cc(C)ccc2-n2cccc2C12CCN(C(=O)Nc1cc(OC)c(OC)c(OC)c1)CC2`, the inhibition is -1.53%. On to `CCOC(=O)c1c(NC(=O)c2ccc(S(=O)(=O)N3CCCC(C)C3)cc2)sc2c1CCN(C(C)C)C2` (stereo not drawn), for which the inhibition was -17%.

With `Cc1ccc(NC(=S)N2CCC(c3ccccc3)C2)c(Cl)c1` (stereo not drawn), the inhibition was active: 30.1%. Turning to `Cc1ccc(S(=O)(=O)c2nc(-c3ccco3)oc2SCc2ccccc2Cl)cc1`, the inhibition was found to be 9.97%.

Turning to `CCOC(=O)c1cc(-c2ccccc2)n(-c2cccc(C(=O)N(CC)c3ccccc3)c2)c1C`, the inhibition was -19%. `Cc1cc(C)cc(NC(=O)C(=O)NC(C)c2ccccc2)c1` (stereo not drawn): the inhibition was 1.74%.

In the case of `Cc1ccc(C)c2[nH]c(=O)c(CN(Cc3cccs3)C(=S)NCc3ccco3)cc12`, the inhibition is active: 52.6%.

On to `COc1ccc(N2Cc3cccc(C(=O)Nc4ccc(C)c(C)c4)c3C2=O)cc1`, for which the inhibition stood at 1.22%. As for `O=C(NCCC1=CCCCC1)c1ccc2c(c1)N(Cc1ccccc1F)C(=O)c1ccccc1S2(=O)=O`, the inhibition stood at 14.6%. In the case of `CCc1cccc(N2C(=O)CS(=O)(=O)C23C(=O)N(Cc2ccc(F)cc2)c2ccc(C)cc23)c1` (stereo not drawn), the inhibition is -1.91%. `CC1=C(C(=O)Nc2ccc(C)cc2)C(c2ccc(Cl)cc2)n2nnnc2N1` (stereo not drawn): the inhibition was -3.07%. `Cc1ccc(NC(=O)CN2C(=O)C(C)(C)c3ccccc32)cc1`: the inhibition was -4.47%. Consider `CCOc1ccc(N2CC(NC(=O)Cc3ccccc3)CC2=O)cc1` (stereo not drawn), for which the inhibition is -9.82%.

For the molecule `O=C(Cc1cccs1)NC1CC(=O)N(c2ccc(Cl)cc2)C1` (stereo not drawn), the inhibition came to 24.6%. Then `Cc1ccc(-c2nn3c(-c4ccccc4)nnc3c3ccccc23)cc1`, with 18%; and `Cc1cccc(C(=O)OCc2cc(=O)n3nc(C4CCCCC4)sc3n2)c1`, with -9.25%. In the case of `C=CCN(c1ccccc1)S(=O)(=O)c1cccc(C(=O)Nc2nnc(SCC)s2)c1` it was active: 42.6%; in that of `C=Cc1ccc(Cn2c(C(=O)O)c(CNCc3cc(Br)ccc3OC)c3ccc(C)cc32)cc1`, -0.183%; in that of `CCCN1C(=O)C2(c3ccccc31)c1c(oc3ccccc3c1=O)C(=O)N2CCO` (stereo not drawn), 2.4%.

As for `Cc1cccc(N2CCN(C(=O)CS(=O)(=O)c3cccc4nsnc34)CC2C)c1` (stereo not drawn), the inhibition is -15.7%. As for `O=c1oc2ccc(Br)cc2cc1-c1csc(-c2ccc(Cl)cc2)n1`, the inhibition came out at 8.71%. In the case of `Fc1ccccc1CN1CCN(c2ncccn2)CC1`, the inhibition is active: 84.1%. For the molecule `O=C(CC(NCc1cccnc1)C(=O)O)Nc1ccc(F)cc1` (stereo not drawn), the inhibition is 1.84%. On to `CCOc1ccccc1NC(=O)c1c(NCc2sccc2C)sc2c1CCCCC2`, for which the inhibition turned out to be 1.48%.

As to `CCN(CC)CCNC(=O)c1ccc(Cn2c(=O)c3cccn3c3cccnc32)cc1`, the inhibition is 3.8%. In the case of `Cc1ccc(-n2ncc(C(=O)NCCc3ccsc3)c2C2CCN(C(=O)OC(C)(C)C)CC2)cc1C` it was -6.7%; in that of `O=C(NCC1CCCO1)C(=O)NCC(c1ccco1)N1CCN(c2ccccc2F)CC1` (stereo not drawn), active: 48.2%; in that of `Cc1cc(NC(=O)CSc2ncc(C(=O)Nc3ccc(F)cc3)c(=O)n2C)no1`, 26.8%.

Turning to `Cc1nc2ccccc2c(=O)n1-c1ccc(NC(=O)C(F)(F)F)cc1`, the inhibition is 7.8%.

Take `NC(=O)CSc1ncc2c(n1)-c1ccccc1N(Cc1cccc(F)c1)S2(=O)=O`: the inhibition was determined as 0.327%. Then `COc1ccc2nc3oc(C(=O)NCc4ccccc4OC)cc3cc2c1`, with -20.6%; and `COc1ccc(-c2noc(-c3nnn(-c4cc(C)ccc4C)c3N)n2)cc1`, with 0.858%.

With `COc1ccccc1-c1nnc(C2CCN(C(=O)c3ccc(C)cc3)CC2)o1`, the inhibition is -3.24%. Then `CC1(C)CC(=O)c2c(oc3c(Cl)cc(NS(=O)(=O)c4ccc(Cl)cc4)cc23)C1`, with 4.11%. In the case of `CN(C)S(=O)(=O)c1ccc2c(c1)N(CC(=O)N1CCN(c3ccc(F)cc3)CC1)CCS2` it was -3.98%; in that of `Cc1ccc(-c2nc(CS(=O)CC(=O)N3CCN(c4ccc(Cl)cc4)CC3)c(C)o2)cc1` (stereo not drawn), 10%; in that of `COc1ccccc1CCNC(=O)C(=O)NCC(c1ccco1)S(=O)(=O)c1ccc(C)cc1` (stereo not drawn), -11.9%. For `COc1ccccc1Nc1cc(C(=O)NCc2cccs2)c2ccccc2n1`, the inhibition was -2.06%. As for `Cc1cc(NC(=O)Nc2nc3c(s2)CCCCCC3)ccc1Br`, the inhibition worked out at 8.26%.

For `CCCCn1c(CNC(=O)c2ccc(OC)cc2)nnc1SCC(=O)Nc1ccc(OC)cc1`, the inhibition turned out to be 7.35%. As to `Cc1ccc(NCc2nc3ccccc3n2CCOc2ccccc2)cc1`, the inhibition turned out to be 7.14%. As for `CCC(=O)N1CCc2cc(S(=O)(=O)CCC(=O)NCc3ccccc3OC)ccc21`, the inhibition stood at 24.6%.

With `Cc1ccc(CNC(=O)CCS(=O)(=O)c2cc(Br)cc3c2N(C(=O)C2CC2)CC3)cc1`, the inhibition was 10.2%. On to `Cc1ccc(-n2nc(CO)c(C(=O)NCc3cccs3)n2)cc1`, for which the inhibition was 0.391%. Then `Cc1ccc(S(=O)(=O)N(C)C)cc1NC(=O)CCCNC(=O)c1ccc(Cl)cc1`, with active: 40.5%; and `CCn1nc(C)c(CCN(C)C(=O)Nc2cc(Cl)ccc2C)c1C`, with -3.88%. Then `Cc1cccc2sc(NC(=O)C3CCCO3)nc12` (stereo not drawn), with active: 31.9%; and `COc1ccc(CC(=O)NCCc2csc(-c3ccc(Cl)cc3)n2)cc1`, with -10.4%. Turning to `CCNC(=O)Cc1ccc(NC(=O)N2CCCCc3ccccc32)cc1`, the inhibition came out at 10.1%. With `CCCn1c2ccccc2c2cnn(CC(=O)NCCc3ccc(OC)cc3OC)c(=O)c21`, the inhibition was found to be 2.68%.

`CCN(CC)c1nn2c(=O)c(C(=O)NCc3ccc(F)cc3)cnc2s1`: the inhibition is -4.79%.

As for `Cc1nc(-c2ccccc2)sc1CCNS(=O)(=O)c1ccc(Br)cc1`, the inhibition turned out to be 23.1%. Take `Cc1ccc(/C=C/C(=O)c2cc(Br)ccc2OC(=O)c2ccco2)cc1`: the inhibition was active: 35.1%. Regarding `Cc1ccc(C(=O)N(Cc2ccc(N(C)C)cc2)Cc2ccco2)cc1`, the inhibition amounted to 0.95%. Then `CCOC(=O)c1cc(NC(=O)c2ccc(F)cc2)c(=O)n2c1oc1ccccc12`, with -1.16%; and `Cc1ccc(OCCSc2ncccn2)c(C)c1`, with active: 36.7%; and `Cn1c(=O)c2cc(C(=O)N3CCN(c4ccc(Cl)cc4)CC3)sc2c2ccccc21`, with -15.2%. For the molecule `Cc1oc(-c2ccc(C(=O)Nc3cc(F)ccc3F)cc2)nc1COc1ccccc1`, the inhibition came to 4.74%.

In the case of `Cc1cc(C)cc(NC(=S)NC2CC3CCC(C2)N3Cc2ccco2)c1` (stereo not drawn), the inhibition was active: 45.7%. Take `CCC(C)NC(=O)c1cnn(-c2ccc(Cl)cc2)c1C1CCN(C(=O)OC(C)(C)C)CC1` (stereo not drawn): the inhibition was 8.44%. Then `O=C(NCCc1ccc(Cl)cc1)c1ccc(CS(=O)Cc2cccc(Cl)c2)o1` (stereo not drawn), with -6.87%. In the case of `Nc1nnc(SCC(=O)Nc2ccccc2C(F)(F)F)s1` it was 4.63%. Then `COC(=O)c1n[nH]n(-c2ccccc2)c1=O`, with 6.25%; and `Cc1ccn2c(Nc3ccc4c(c3)OCCO4)c(-c3ccc(Cl)s3)nc2c1`, with -1.38%; and `CN(C1CCCCC1)S(=O)(=O)c1ccc2c(c1)c(=O)c(C(=O)NCCc1ccccc1)cn2C`, with 0.0707%. As for `Cc1ccc2c(c1)cc(C(=O)Nc1ccc(F)cc1F)n2C`, the inhibition is -23.5%.

As for `Cc1cccc(NC(=O)C2CCCN(S(=O)(=O)c3cnc[nH]3)C2)c1C` (stereo not drawn), the inhibition stood at 25.4%. Then `COc1cc(C(=O)Oc2c(Sc3ccc(C)cc3)c(C)nn2-c2ccccc2)cc(OC)c1OC`, with 23.9%. `CCOc1ccccc1NC(=O)c1c(NC(=O)c2ccccc2C)sc2c1CCC(C)C2` (stereo not drawn): the inhibition was -0.141%.

With `COC(=O)c1c(C)sc(-c2c(-c3ccc4c(c3)OCCO4)[nH]c3c2c(=O)n(C)c(=O)n3C)c1O`, the inhibition stood at 5.06%.

On to `CCNC(=O)c1cnc2sc(N3CCCCCC3)nn2c1=O`, for which the inhibition amounted to 4.16%. For the molecule `COc1cccc(NC(=O)CN(C)S(=O)(=O)c2ccc3nc(C)sc3c2)c1`, the inhibition came to 5.88%. Take `COc1ccc(C)cc1N(C)C(=O)c1c(C)oc2ncnc(N3CCOCC3)c12`: the inhibition came out at 2.39%. Then `COc1ccc(OC)c(CN2CCCC(C(=O)c3ccccc3SC)C2)c1` (stereo not drawn), with active: 50.7%.

Turning to `CN(c1ccc(Cl)cc1)S(=O)(=O)c1nnc(NC(=O)C2CCCCC2)s1`, the inhibition is 20.2%. Consider `CCOc1ccc(OCC)c(NC(=O)Cn2ncc3c4ccccc4n(Cc4ccccc4)c3c2=O)c1`, for which the inhibition is 13.5%.

Regarding `CSc1nnc(CCNS(=O)(=O)c2ccccc2Br)n1C`, the inhibition was active: 33.6%. Then `CCc1ccc(CNC(=O)c2cccc(-n3cnc4cccnc43)c2C)cc1`, with 3.55%; and `CCC1CN(C(=O)N2CCC(C(=O)NCCN(C)C)CC2)c2ccccc2O1` (stereo not drawn), with 26.9%; and `Cn1ccc2cc(S(=O)(=O)N3CCCN(C(=O)Nc4ccccc4Br)CC3)ccc21`, with -15.3%. Then `Cc1ccc(NC(=O)c2cnc(SCC(=O)N3CCOCC3)n(C)c2=O)cc1`, with 18.2%; and `COc1cc(-c2noc(-c3ccc(NCc4cccnc4)c([N+](=O)[O-])c3)n2)cc(OC)c1OC`, with -12%; and `COc1ccc(OC)c(CNC(=O)CCCn2ccc3cc(S(=O)(=O)N4CCCC4)ccc32)c1`, with 6.92%. On to `CCOc1ccc(CNC(=O)CCC(=O)N2CC(C)Sc3ccccc32)cc1` (stereo not drawn), for which the inhibition was determined as 9.36%. `CCOc1ccc(CCNC(=O)CCCn2nc(C)c3sc4ccccc4c3c2=O)cc1OCC`: the inhibition is -27.6%. As to `O=C(CSc1nccn1-c1ccccc1)Nc1nc2ccccc2s1`, the inhibition was determined as 26.3%. Turning to `CCCc1cc(=O)[nH]c(Nc2ccc(C(=O)O)cc2)n1`, the inhibition is 12.7%. For the molecule `N#C/C(=C/c1cn(Cc2ccc(F)cc2)c2ccccc12)C(=O)Nc1cccc(Cl)c1`, the inhibition is -15.2%. Then `CCn1c2ccccc2c2nnc(SCCN3CCCCC3)nc21`, with 6.54%; and `COc1ccccc1Nc1nn2c(=O)c3ccc(C(=O)NCCCOC(C)C)cc3nc2s1`, with -1%; and `COC(=O)CC1c2cc(OC)c(OC)cc2CCN1C(=O)Nc1ccc(C)cc1Cl` (stereo not drawn), with -5.9%.

In the case of `CCOC(=O)c1cccc(NC(=O)C(CC(C)C)N2Cc3ccccc3C2=O)c1` (stereo not drawn), the inhibition stood at 1.35%. In the case of `Cc1ccc(CN(C(=O)COc2cccc([N+](=O)[O-])c2)c2ccccn2)o1` it was -5.98%; in that of `O=S(=O)(Nc1ccc(Cl)cc1)c1ccc(NS(=O)(=O)c2ccc3c(c2)OCCO3)cc1`, -27.6%; in that of `CCC(=O)N1CCc2cc(Br)cc(S(=O)(=O)N3CCCC(C(=O)Nc4ccc(OC)c(Cl)c4)C3)c21` (stereo not drawn), 21.7%. Then `Cn1nnnc1SCCNCc1ccc(F)cc1`, with 8.15%; and `Cc1cccc(-c2nc(CS(=O)CC(=O)NCc3cccs3)c(C)o2)c1` (stereo not drawn), with active: 39.1%.
